Assay results published in the supplement of paper PMC11417369.
Some of the results follow.

Test system: PF3D7_0420300 AP2 domain 1 (GST-tagged)
Test: gcPBM binding intensity (ln(normalized median fluorescence intensity)); higher = stronger DNA binding
Outline: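 The binding buffer was 1× PBS containing 1% milk, 0.2 mg/ml BSA, 0.5% salmon testes DNA and 0.03% Triton X-100. In it, GST-tagged P. falciparum DNA-binding domains expressed in E. coli were applied for 1 h to an Agilent 4 × 180k array of primer-extended double-stranded 36-bp intergenic genomic probes plus negative controls. Binding intensity, read with Alexa488 anti-GST antibody and a 488 nm scan, is the highest Masliner-normalised natural-log median intensity across replicate spots of either probe orientation.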

Row | Sequence | gcPBM binding intensity (ln)
1 | AAGAAAAATTTAAACTGTACTTGTTTTCCAATGAAC [XGTACX_site4443] | 9.14
2 | ATAAAAAAAAATAAATGTACAAATTAACAAAATAAT [XGTACX_site5048] | 9.53
3 | AATCACCAAATATGTACACACCTTAACATGTTTATA [CACACA_site5180] | 9.64
4 | TTATAATATGGATACACACACATATATAAATATATA [CACACA_site5314] | 9.84
5 | AAAAAATAAATAAATACACACAAATCTATATTTATA [CACACA_site7243] | 9.51
6 | ATCTAAATTTTTCCATGTACATATACTTTTATGCAT [XGTACX_site2683] | 9.4
7 | AAAATATGTAGACACATACACACATATATATATATA [CACACA_site1221] | 9.51
8 | TTTTTTTTTTCAAATGCATGCAAAAAAAAAAAAATA [TGCATGCA_site945] | 8.68
9 | TTTTCTTTTTCCAAAAGTACGTAATTTAAACATTTT [XGTACX_site2066] | 8.91
10 | TATATGTATGTTTGTTTGTTTGTATTTTTTAAGGTA [XGTACX_negctrl_site619] | 9.65
11 | ATAATTATGAAGCATACATGCATGTCCTGGCTTAAA [TGCATGCA_site491] | 9.11
12 | AAATTAGAAATACCTACACACTTATCAAAATAAATT [CACACA_site7132] | 9.57
13 | CTAAAATACGGACACACACACACATATATATATATA [CACACA_site6138] | 10.2
14 | ATTATCTCCGCCATGTGGACACATATAAGACATTTT [XGTACX_site2889] | 9.28
15 | ATTGTATATAAATGAGTGCATACTATGTTGTTCTTA [GTGCAC_site9678] | 9.26
16 | TATGTAAATCTCTTAAGAATTCGCTATATCTCTTTT [CACACA_negctrl_site1180] | 9.09
17 | ATATAAGCGTATACATGTACATATATATCTTTGTAA [XGTACX_site2742] | 9.25
18 | AGGCTACGAATAGAATGTACCCGAAATAAGGAATAT [XGTACX_site6012] | 9.21
19 | GCAAGGAAATAATTGATAATATATATATATATATAT [GTGCAC_negctrl_site400] | 9.09
20 | GAGTAAATAAATAAATGTACATATATATATATTATC [XGTACX_site8466] | 9.38
21 | AATATATATATATATATATATTTTTGTTAGAATATG [XGTACX_negctrl_site58] | 8.96
22 | ATACATAAATATTGATGTACTCATTTAATATATTAT [XGTACX_site3992] | 9.22

Row | Sequence | gcPBM binding intensity (ln)
23 | TATAATAAATATTAACGTACTCATATATATATATAT [XGTACX_site3871] | 9.25
24 | CAATCTTTTACGAATACACACACATAAAGAAAAAAA [CACACA_site8367] | 9.71
25 | TTAAATAAATAAAAATGTACATGCATATATAAATAT [XGTACX_site8908] | 9.34
26 | AATTTTTTATATGTCACACATTTGTTATTATTATTA [CACACA_site4197] | 9.56
27 | ACATATAGAAGTATCTATAAACAGTGATAGCATTTT [CACACA_negctrl_site1122] | 9.21
28 | AAAAAGAATAAATAAATATAAATAAATAAATATATA [GTGCAC_negctrl_site336] | 9.19
29 | AAAAAAAAATGTCATGGTACACAATTTTTTCTTTTT [XGTACX_site4505] | 9
30 | TAAAGTAAAACAAGGTAAGGTTTTTCTTTTTCTTTT [CACACA_negctrl_site1271] | 9
31 | TAGATTATTTTATTTAGTACATAAAAAAGTAAGACC [XGTACX_site7889] | 9.28
32 | AATAAATTATGAACGGTGCAGGAAAAATTGTAACAT | 9.82
33 | AAACATAAGGGACACACACACATATATATATATATA [CACACA_site5920] | 9.75
34 | CAAAAAAACAAACACACACACACACCGATATATATA [CACACA_site9218] | 10.2
35 | TGAAGTGCAAAATACTGTACGTAATGTGCTTGTTAC [XGTACX_site4512] | 9.26
36 | CATTATGTCGTAAATACACACATACAGATACATACA [CACACA_site4880] | 9.59
37 | AAATTAAATAAATTTACACACTAAAAATTACAGATA [CACACA_site4722] | 9.48
38 | GTTATATATAATAATTGTACAAAATTAAATATAACT [XGTACX_site4189] | 9.16
39 | AAAAAACACCCACATACACACAAAAATGTTATAAAT [CACACA_site81] | 9.94
40 | TTTTTATTTGGTTGTGTACACATATATATATATATA [CACACA_site5844] | 9.45
41 | CTAAGAAAAAATAAAGCACACAAATATTTTAAAAAC [CACACA_site9094] | 9.71
42 | AAAACACAAAAAAAATGTACACATATATATATATAT [XGTACX_site8509] | 9.29
43 | TAACTATATTTTTACTGTACAAAAAAATTAAATAAT [XGTACX_site1765] | 9.02
44 | ATATTAATTCTACATTGTACACATGAAAAAATATAA [XGTACX_site8759] | 9.21

Row | Sequence | gcPBM binding intensity (ln)
45 | ATACAATTTATTTTAACACACGAATGAATTGATTAT [CACACA_site4160] | 9.39
46 | ATACAAATATACTTTTGTACGAAGAAATATATATAT [XGTACX_site3912] | 9.19
47 | ATAAAAAAAATAAAAAGTACAAAAAAAAAAAATGGA [XGTACX_site136] | 9.74
48 | TAAAGAAACTATTCAACACACGGTCTAATTATTACA [CACACA_site1064] | 9.33
49 | AAAAATAAACGACAGTGTACTAAATATTTAATTTTC [XGTACX_site3580] | 9.47
50 | TATTCTAAAGAAATTACACACATGCAATGAAAAAAA [CACACA_site6895] | 9.41
51 | CAGGGCAGGGGGAAGGGTACACATAAAAGAAAATAA [XGTACX_site172] | 9.51
52 | TATAAATATATATTTTGTACTTAATATAAATTTATA [XGTACX_site7996] | 8.98
53 | AAAAAAAAATATAACAGTACATAAACATATGAATAT [XGTACX_site7093] | 9.48
54 | TCAACCAAAACATAAGCATGCAATATATTTTTATAC [TGCATGCA_site560] | 9.31
55 | TTTTATAATTTCTTCTGTACATATATATGAAAATAT [XGTACX_site74] | 9.08
56 | TTATATATTTTTATGTGTACTTATATATATATATAT [XGTACX_site6211] | 9.32
57 | ATTTCCCTATATAGAGCATGCACTATATTCAAATGA [TGCATGCA_site531] | 9.05
58 | AACAAAAACACTTTTACACACATAAGTAAAATATAT [CACACA_site1994] | 9.81
59 | TACTTATTTAAAATAGTGCATGAATAGAAGATATAT [GTGCAC_site9756] | 9.17
60 | CTAAAAAATAGTAAAAGTACATAAATAATTTTGCTT [XGTACX_site8919] | 9.2
61 | TTACACATGTTTAACTGTACACATAATAGCAATATT [XGTACX_site8545] | 9.29
62 | ACAATTATTTTGTTCTTTAATGGTAGGTTCTATGTC [CACACA_negctrl_site1419] | 9.25
63 | AATACACGCAGACACACACACACACGCACATATATA [CACACA_site6447] | 10.3
64 | CATAAATTACTTTTTACACACTAAAATAAAATACAA [CACACA_site1135] | 9.37
65 | AATAATATTTAATACACACACCAGTTCTGCAAATTT [CACACA_site7712] | 9.71
66 | GAAAAAAGAAATTAAACATGCATCTGCAAATTTAAA [TGCATGCA_site974] | 9.06

Row | Sequence | gcPBM binding intensity (ln)
67 | AATAGTAAAAGATATACACACACCAAAAAATATAAT [CACACA_site5293] | 9.99
68 | TGCTACATTTTATGTACACACATATACAGATATATA [CACACA_site4646] | 9.42
69 | TGAATAAATCAAAGCACACATACACCCACATATATA [CACACA_site286] | 9.56
70 | ACATAATAAAAATAAATTCATAAGTAAATAAATAAA [TGCATGCA_negctrl_site186] | 9.31
71 | TATATATATATATGATGTACATGAAAATTTCCAAAA [XGTACX_site5472] | 9.27
72 | TATATTTTTTAATTCACACAAAAATGAAAAATATTT [CACACA_site6001] | 8.95
73 | ATATCTGAAGTGTAAAGTACATATATATATTCATAT [XGTACX_site4612] | 9.3
74 | CAATTTTACTCATAAACACACATATAGATGTTATTA [CACACA_site7474] | 9.2
75 | AATATAAATAATAGTAGTACATATATATCTCAGAAA [XGTACX_site4055] | 9.4
76 | AATGGAGTTTATAAGTATAAACGAGGGATACCTAAA [XGTACX_negctrl_site483] | 9.33
77 | TAAATAAATTTATACACACACACACCCATATATATA [CACACA_site849] | 10.2
78 | AAAAAATCAAAACACACACACACACTAGAAAAAAAA [CACACA_site4909] | 10.3
79 | TTATGTTGTAAATGCACACATACATATACGCAGTTT [CACACA_site3015] | 9.29
80 | AATAAAAATATATCCACACACATATATATATCTGTA [CACACA_site4481] | 9.68
81 | TATATTATATTTTTATGTACATATATGTTTTTTTTT [XGTACX_site8239] | 9.51
82 | ATTTTATCAAGAGGAAGTACATTACCCCATGAAAAA [XGTACX_site8295] | 9.15
83 | TATAATATATATATATTTATATATATCTTCCTAATC [GTGCAC_negctrl_site682] | 8.89
84 | TTTTTTTATATAGACACAAAAGAAAATTACATATAC [CACACA_negctrl_site235] | 9.13
85 | GATTTGTCTTACAGTGGTACACTTATATATATGTGA [XGTACX_site2899] | 9.34
86 | AATATTTATTTTATATGTACATAATTTATTTTTAAT [XGTACX_site776] | 9.26
87 | AAAAAAAAAAAAAAAACACACAAGGATCATATATAT [CACACA_site3812] | 9.81
88 | TATGAAGTACACAATACACACTAATTATATATAAAT [CACACA_site5444] | 9.57
